From paper PMC12820563, “FoxP3 forms a head-to-head dimer in vivo and stabilizes its multimerization on adjacent microsatellites” come the findings set out here.

This is one part of the list.

The assay has as its target T1, MBP-FoxP1dN (Mus musculus, UniProt P58462 326-579).
T1 sequence: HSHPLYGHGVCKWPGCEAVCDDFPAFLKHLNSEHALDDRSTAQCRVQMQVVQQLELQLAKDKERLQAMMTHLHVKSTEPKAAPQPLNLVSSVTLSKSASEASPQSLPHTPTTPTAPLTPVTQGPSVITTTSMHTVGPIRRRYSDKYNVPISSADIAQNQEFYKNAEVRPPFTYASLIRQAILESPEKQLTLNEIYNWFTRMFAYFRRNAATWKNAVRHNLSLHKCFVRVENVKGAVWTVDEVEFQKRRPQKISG
The assay can be described thus: PD-seq (MBP pull-down with sequencing); 20 mM Tris-HCl pH 7.5, 100 mM NaCl, 1.5 mM MgCl2, 0.4 uM protein, 0.1 uM dsDNA library, 30 min, room temperature, amylose pull-down; high values mean tight binding. As to conditions: protein: recombinant; tags: His6-MBP; chain copies: 2; dsDNA, one strand shown. Summed up: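 A degenerate double-stranded DNA library, filled in with Klenow, was added at 0.1 µM to 0.4 µM His6-MBP-tagged mouse FoxP3 or FoxP1 fragment lacking the N-terminus, expressed in E. coli. Incubation lasted 30 min at room temperature in Tris pH 7.5 buffer with NaCl and MgCl2, after which complexes were collected on amylose resin, washed three times, digested with proteinase K to free the DNA, barcoded by PCR and sequenced by Illumina. Binding is the pooled-replicate reads-per-million enrichment of pull-down over input.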
Regarding “GATGATTGTTCTCCCAGCTGATGAATTTAATGGTTCGAGTAAACAAATTTTCCTAATCTTTCTGTTCAAGCGCCATCTAC”, the binding signal is 0.868 RPM ratio (pull-down/input).

As for “GATGATTGTTCTCCCAGCTGATGAATTCTTTAGATCGAGTAAACAAATTTTCCTAATCTTTCTGTTCAAGCGCCATCTAC”, the binding signal was 0.914 RPM ratio (pull-down/input).

Consider “GATGATTGTTCTCCCAGCTGATGAATTAAACTTATCGAGTAAACAAATTTTCCTAATCTTTCTGTTCAAGCGCCATCTAC”, for which the binding signal is 0.94 RPM ratio (pull-down/input).

“GATGATTGTTCTCCCAGCTGATGAATTTCCCGTTTCGAGTAAACAAATTTTCCTAATCTTTCTGTTCAAGCGCCATCTAC”: the binding signal was 0.791 RPM ratio (pull-down/input).

In the case of “GATGATTGTTCTCCCAGCTGATGAATTACTCGCTTCGAGTAAACAAATTTTCCTAATCTTTCTGTTCAAGCGCCATCTAC”, the binding signal is 0.986 RPM ratio (pull-down/input).

For the sequence “GATGATTGTTCTCCCAGCTGATGAATTGAAACCGTCGAGTAAACAAATTTTCCTAATCTTTCTGTTCAAGCGCCATCTAC”, the binding signal was 0.817 RPM ratio (pull-down/input).

Turning to “GATGATTGTTCTCCCAGCTGATGAATTCCTTTATTCGAGTAAACAAATTTTCCTAATCTTTCTGTTCAAGCGCCATCTAC”, the binding signal is 0.944 RPM ratio (pull-down/input).

Regarding “GATGATTGTTCTCCCAGCTGATGAATTCCGGCTTTCGAGTAAACAAATTTTCCTAATCTTTCTGTTCAAGCGCCATCTAC”, the binding signal is 0.857 RPM ratio (pull-down/input).

On to “GATGATTGTTCTCCCAGCTGATGAATTTCTGGGATCGAGTAAACAAATTTTCCTAATCTTTCTGTTCAAGCGCCATCTAC”, for which the binding signal was 0.862 RPM ratio (pull-down/input).

As for “GATGATTGTTCTCCCAGCTGATGAATTGGGCTTTTCGAGTAAACAAATTTTCCTAATCTTTCTGTTCAAGCGCCATCTAC”, the binding signal is 0.907 RPM ratio (pull-down/input).

As for “GATGATTGTTCTCCCAGCTGATGAATTGCTCACATCGAGTAAACAAATTTTCCTAATCTTTCTGTTCAAGCGCCATCTAC”, the binding signal was 1.15 RPM ratio (pull-down/input).

For “GATGATTGTTCTCCCAGCTGATGAATTAAGCTATTCGAGTAAACAAATTTTCCTAATCTTTCTGTTCAAGCGCCATCTAC”, the binding signal was 0.965 RPM ratio (pull-down/input).

For “GATGATTGTTCTCCCAGCTGATGAATTGTCACCATCGAGTAAACAAATTTTCCTAATCTTTCTGTTCAAGCGCCATCTAC”, the binding signal is 1.13 RPM ratio (pull-down/input).

Consider “GATGATTGTTCTCCCAGCTGATGAATTGCAGATCTCGAGTAAACAAATTTTCCTAATCTTTCTGTTCAAGCGCCATCTAC”, for which the binding signal is 1.03 RPM ratio (pull-down/input).

Consider “GATGATTGTTCTCCCAGCTGATGAATTCATGGGATCGAGTAAACAAATTTTCCTAATCTTTCTGTTCAAGCGCCATCTAC”, for which the binding signal was 0.899 RPM ratio (pull-down/input).

“GATGATTGTTCTCCCAGCTGATGAATTGGATTCATCGAGTAAACAAATTTTCCTAATCTTTCTGTTCAAGCGCCATCTAC”: the binding signal is 0.887 RPM ratio (pull-down/input).

On to “GATGATTGTTCTCCCAGCTGATGAATTGAACTGGTCGAGTAAACAAATTTTCCTAATCTTTCTGTTCAAGCGCCATCTAC”, for which the binding signal was 0.74 RPM ratio (pull-down/input).

As to “GATGATTGTTCTCCCAGCTGATGAATTGGGACACTCGAGTAAACAAATTTTCCTAATCTTTCTGTTCAAGCGCCATCTAC”, the binding signal is 0.901 RPM ratio (pull-down/input).

In the case of “GATGATTGTTCTCCCAGCTGATGAATTGATCAGGTCGAGTAAACAAATTTTCCTAATCTTTCTGTTCAAGCGCCATCTAC”, the binding signal is 0.877 RPM ratio (pull-down/input).

On to “GATGATTGTTCTCCCAGCTGATGAATTCTACCCATCGAGTAAACAAATTTTCCTAATCTTTCTGTTCAAGCGCCATCTAC”, for which the binding signal was 0.851 RPM ratio (pull-down/input).

For the sequence “GATGATTGTTCTCCCAGCTGATGAATTTTACTTCTCGAGTAAACAAATTTTCCTAATCTTTCTGTTCAAGCGCCATCTAC”, the binding signal was 0.828 RPM ratio (pull-down/input).

Take “GATGATTGTTCTCCCAGCTGATGAATTAGATGCCTCGAGTAAACAAATTTTCCTAATCTTTCTGTTCAAGCGCCATCTAC”: the binding signal is 1.21 RPM ratio (pull-down/input).

As for “GATGATTGTTCTCCCAGCTGATGAATTGCGCATGTCGAGTAAACAAATTTTCCTAATCTTTCTGTTCAAGCGCCATCTAC”, the binding signal was 1.1 RPM ratio (pull-down/input).

As to “GATGATTGTTCTCCCAGCTGATGAATTGCGGAGTTCGAGTAAACAAATTTTCCTAATCTTTCTGTTCAAGCGCCATCTAC”, the binding signal is 0.951 RPM ratio (pull-down/input).

Consider “GATGATTGTTCTCCCAGCTGATGAATTCTCTCAATCGAGTAAACAAATTTTCCTAATCTTTCTGTTCAAGCGCCATCTAC”, for which the binding signal was 0.964 RPM ratio (pull-down/input).

On to “GATGATTGTTCTCCCAGCTGATGAATTACAGAAGTCGAGTAAACAAATTTTCCTAATCTTTCTGTTCAAGCGCCATCTAC”, for which the binding signal is 1.05 RPM ratio (pull-down/input).

Turning to “GATGATTGTTCTCCCAGCTGATGAATTGTGGCTGTCGAGTAAACAAATTTTCCTAATCTTTCTGTTCAAGCGCCATCTAC”, the binding signal was 1.03 RPM ratio (pull-down/input).

As to “GATGATTGTTCTCCCAGCTGATGAATTCGTGGATTCGAGTAAACAAATTTTCCTAATCTTTCTGTTCAAGCGCCATCTAC”, the binding signal is 0.795 RPM ratio (pull-down/input).

With “GATGATTGTTCTCCCAGCTGATGAATTCAATAGGTCGAGTAAACAAATTTTCCTAATCTTTCTGTTCAAGCGCCATCTAC”, the binding signal was 0.938 RPM ratio (pull-down/input).

For “GATGATTGTTCTCCCAGCTGATGAATTAGGCAACTCGAGTAAACAAATTTTCCTAATCTTTCTGTTCAAGCGCCATCTAC”, the binding signal was 1.02 RPM ratio (pull-down/input).

In the case of “GATGATTGTTCTCCCAGCTGATGAATTTATGGAGTCGAGTAAACAAATTTTCCTAATCTTTCTGTTCAAGCGCCATCTAC”, the binding signal was 1.01 RPM ratio (pull-down/input).
